{
  "source": "the supplement of paper PMC12645437",
  "about": "“Orthogonal IMiD-Degron Pairs Induce Selective Protein Degradation in Cells” (ACS Chemical Biology, 2025)",
  "note": "The list shows a part of the results.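 Note: jurkat cells carrying a lentiviral library of mutant zinc finger degrons fused to EGFP plus mCherry, mCherry+ cells FACS sorted, degron abundance counted by next-generation sequencing.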",
  "data": [
    {"molecular_target": "no compound (DMSO)", "test": "log2 fold change of degron read counts, EGFP-low vs EGFP+ sorted cells; higher = lower degron-EGFP level without compound (poor expression or instability)", "settings": "compound: DMSO control; 18 h", "values": [
      {"sequence": "LACNQCGFPCTQKGNLLRHIKL", "log2 fold change of degron read counts": 0.891},
      {"sequence": "LGCNQCGFMCTQKGNLLRHIKL", "log2 fold change of degron read counts": 1.27},
      {"sequence": "FQCEICGHVFTQKGNLLRHIKL", "log2 fold change of degron read counts": -1.27},
      {"sequence": "FLCPVCGAYFTQKGNLLRHIKL", "log2 fold change of degron read counts": 0.716},
      {"sequence": "LRCNQCGFECTQKGNLLRHIKL", "log2 fold change of degron read counts": -0.266},
      {"sequence": "FTCEICGAGFTQKGNLLRHIKL", "log2 fold change of degron read counts": -1.23},
      {"sequence": "FECPICGRVFTQKGNLLRHIKL", "log2 fold change of degron read counts": -0.524},
      {"sequence": "FHCEVCGAIFTQKGNLLRHIKL", "log2 fold change of degron read counts": -0.963},
      {"sequence": "FTCEQCGALFTQKGNLLRHIKL", "log2 fold change of degron read counts": -1.48},
      {"sequence": "FICDQCGAMFTQKGNLLRHIKL", "log2 fold change of degron read counts": -1.02},
      {"sequence": "FACDQCGAPFTQKGNLLRHIKL", "log2 fold change of degron read counts": -1.41},
      {"sequence": "FACNVCGANFTQKGNLLRHIKL", "log2 fold change of degron read counts": -1.04},
      {"sequence": "FICNQCGRSFTQKGNLLRHIKL", "log2 fold change of degron read counts": -1.34},
      {"sequence": "FWCDVCGAAFTQKGNLLRHIKL", "log2 fold change of degron read counts": -0.722},
      {"sequence": "FNCNVCGAMFTQKGNLLRHIKL", "log2 fold change of degron read counts": -0.608},
      {"sequence": "FECEICGHAFTQKGNLLRHIKL", "log2 fold change of degron read counts": -1.43},
      {"sequence": "FECNICGAGFTQKGNLLRHIKL", "log2 fold change of degron read counts": -0.0384},
      {"sequence": "FTCEQCGAMFTQKGNLLRHIKL", "log2 fold change of degron read counts": -1.02},
      {"sequence": "FICPVCGATFTQKGNLLRHIKL", "log2 fold change of degron read counts": -0.433},
      {"sequence": "FGCDVCGAMFTQKGNLLRHIKL", "log2 fold change of degron read counts": -1.33},
      {"sequence": "FGCDVCGASFTQKGNLLRHIKL", "log2 fold change of degron read counts": -1.77},
      {"sequence": "FGCEQCGAPFTQKGNLLRHIKL", "log2 fold change of degron read counts": -0.874},
      {"sequence": "FGCDQCGAWFTQKGNLLRHIKL", "log2 fold change of degron read counts": 0.0444},
      {"sequence": "FMCNQCGRMFTQKGNLLRHIKL", "log2 fold change of degron read counts": 0.554},
      {"sequence": "FNCPQCGAAFTQKGNLLRHIKL", "log2 fold change of degron read counts": -1.08},
      {"sequence": "FICDQCGAQFTQKGNLLRHIKL", "log2 fold change of degron read counts": -1.71},
      {"sequence": "FGCPICGAIFTQKGNLLRHIKL", "log2 fold change of degron read counts": 0.771},
      {"sequence": "FWCNVCGAPFTQKGNLLRHIKL", "log2 fold change of degron read counts": 1.06},
      {"sequence": "LSCNQCGFACTQKGNLLRHIKL", "log2 fold change of degron read counts": 0.533},
      {"sequence": "FTCNQCGRMFTQKGNLLRHIKL", "log2 fold change of degron read counts": -1.13},
      {"sequence": "FKCEVCGAHFTQKGNLLRHIKL", "log2 fold change of degron read counts": -1.17},
      {"sequence": "FMCPICGHGFTQKGNLLRHIKL", "log2 fold change of degron read counts": -0.225},
      {"sequence": "FECNQCGRHFTQKGNLLRHIKL", "log2 fold change of degron read counts": -0.856},
      {"sequence": "FYCNVCGAQFTQKGNLLRHIKL", "log2 fold change of degron read counts": -0.291},
      {"sequence": "FRCEQCGAIFTQKGNLLRHIKL", "log2 fold change of degron read counts": -1.39},
      {"sequence": "FKCNQCGAWFTQKGNLLRHIKL", "log2 fold change of degron read counts": -0.405},
      {"sequence": "FQCNQCGRTFTQKGNLLRHIKL", "log2 fold change of degron read counts": -1.56},
      {"sequence": "FICNQCGRLFTQKGNLLRHIKL", "log2 fold change of degron read counts": 0.437},
      {"sequence": "FICDVCGARFTQKGNLLRHIKL", "log2 fold change of degron read counts": -1.25},
      {"sequence": "FKCNVCGACFTQKGNLLRHIKL", "log2 fold change of degron read counts": -0.431},
      {"sequence": "FCCEICGRCFTQKGNLLRHIKL", "log2 fold change of degron read counts": -1.51},
      {"sequence": "FGCNVCGAHFTQKGNLLRHIKL", "log2 fold change of degron read counts": -0.759},
      {"sequence": "FFCNQCGRSFTQKGNLLRHIKL", "log2 fold change of degron read counts": -0.121},
      {"sequence": "FLCDQCGARFTQKGNLLRHIKL", "log2 fold change of degron read counts": -1.4},
      {"sequence": "LKCNQCGFVCTQKGNLLRHIKL", "log2 fold change of degron read counts": 0.113},
      {"sequence": "FMCEQCGAKFTQKGNLLRHIKL", "log2 fold change of degron read counts": -2.21},
      {"sequence": "FWCNICGADFTQKGNLLRHIKL", "log2 fold change of degron read counts": 0.478},
      {"sequence": "FMCEICGADFTQKGNLLRHIKL", "log2 fold change of degron read counts": -1.69},
      {"sequence": "FVCDICGAIFTQKGNLLRHIKL", "log2 fold change of degron read counts": -0.511},
      {"sequence": "FACPICGHAFTQKGNLLRHIKL", "log2 fold change of degron read counts": -0.555}
    ]}
  ]
}
